Results: PubChem BioAssay (NCI)
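Exposure lasted 48 hours, with cells grown in 96-well plates and compounds tested at five concentrations. At the TGI there is no net growth.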

Assays:
Experiment in all cases: NCI-60 cell line screen, 48 h
786-0 renal = test system: 786-0 renal
A498 renal = test system: A498 renal
A549 NSCLC = test system: A549 NSCLC
ACHN renal = test system: ACHN renal
BT-549 breast = test system: BT-549 breast
CAKI-1 renal = test system: CAKI-1 renal
CCRF-CEM leukemia = test system: CCRF-CEM leukemia
COLO 205 colon = test system: COLO 205 colon
DU-145 prostate = test system: DU-145 prostate
EKVX NSCLC = test system: EKVX NSCLC
HCC-2998 colon = test system: HCC-2998 colon
HCT-116 colon = test system: HCT-116 colon
HCT-15 colon = test system: HCT-15 colon
HL-60(TB) leukemia = test system: HL-60(TB) leukemia
HOP-62 NSCLC = test system: HOP-62 NSCLC
HOP-92 NSCLC = test system: HOP-92 NSCLC
HS 578T breast = test system: HS 578T breast
HT29 colon = test system: HT29 colon
IGROV1 ovarian = test system: IGROV1 ovarian
K-562 leukemia = test system: K-562 leukemia
KM12 colon = test system: KM12 colon
LOX IMVI melanoma = test system: LOX IMVI melanoma
M14 melanoma = test system: M14 melanoma
MALME-3M melanoma = test system: MALME-3M melanoma
MCF7 breast = test system: MCF7 breast
MDA-MB-231 breast = test system: MDA-MB-231 breast
MDA-MB-435 = test system: MDA-MB-435
MDA-N = test system: MDA-N
MOLT-4 leukemia = test system: MOLT-4 leukemia
NCI-H226 lung = test system: NCI-H226 lung
NCI-H23 lung = test system: NCI-H23 lung
NCI-H460 lung = test system: NCI-H460 lung
NCI-H522 lung = test system: NCI-H522 lung
NCI/ADR-RES ovarian = test system: NCI/ADR-RES ovarian
OVCAR-3 ovarian = test system: OVCAR-3 ovarian
OVCAR-4 ovarian = test system: OVCAR-4 ovarian
OVCAR-5 ovarian = test system: OVCAR-5 ovarian
OVCAR-8 ovarian = test system: OVCAR-8 ovarian
PC-3 prostate = test system: PC-3 prostate
RPMI-8226 leukemia = test system: RPMI-8226 leukemia
RXF 393 renal = test system: RXF 393 renal
SF-268 CNS = test system: SF-268 CNS
SF-295 CNS = test system: SF-295 CNS
SF-539 CNS = test system: SF-539 CNS
SK-MEL-2 melanoma = test system: SK-MEL-2 melanoma
SK-MEL-28 melanoma = test system: SK-MEL-28 melanoma
SK-MEL-5 melanoma = test system: SK-MEL-5 melanoma
SK-OV-3 ovarian = test system: SK-OV-3 ovarian
SN12C renal = test system: SN12C renal
SNB-19 CNS = test system: SNB-19 CNS
SNB-75 CNS = test system: SNB-75 CNS
SR leukemia = test system: SR leukemia
SW-620 colon = test system: SW-620 colon
T-47D breast = test system: T-47D breast
TK-10 renal = test system: TK-10 renal
U251 CNS = test system: U251 CNS
UACC-257 melanoma = test system: UACC-257 melanoma
UACC-62 melanoma = test system: UACC-62 melanoma
UO-31 renal = test system: UO-31 renal

Which TGI (786-0 renal) does the source give for `COc1cccc2c1NC(=O)Cc1c-2[nH]c2ccc(Br)cc12` here?
The TGI was 14.6 µM.

And the TGI (A498 renal)?
Its TGI is 81.5 µM.

What about the TGI (A549 NSCLC) of the same compound?
The TGI was 45 µM.

What about the TGI (ACHN renal) of the same compound?
The TGI was 53.7 µM.

And the TGI (BT-549 breast)?
Its TGI is 69.4 µM.

What about the TGI (CAKI-1 renal) of the same compound?
Its TGI is 57.2 µM.

What about the TGI (CCRF-CEM leukemia) of the same compound?
Its TGI is over 100 µM.

What about the TGI (COLO 205 colon) of the same compound?
The TGI was over 100 µM.

And the TGI (DU-145 prostate)?
Its TGI is 54 µM.

And the TGI (EKVX NSCLC)?
Its TGI is 77.4 µM.

And the TGI (HCC-2998 colon)?
The TGI was 71.6 µM.

And the TGI (HCT-116 colon)?
The TGI was 24.4 µM.

What about the TGI (HCT-15 colon) of the same compound?
The TGI was over 100 µM.

What about the TGI (HL-60(TB) leukemia) of the same compound?
The TGI was over 100 µM.

What about the TGI (HOP-62 NSCLC) of the same compound?
The TGI was 39.3 µM.

And the TGI (HOP-92 NSCLC)?
The TGI was over 100 µM.

And the TGI (HS 578T breast)?
The TGI was over 100 µM.

What about the TGI (HT29 colon) of the same compound?
Its TGI is 33.7 µM.

And the TGI (IGROV1 ovarian)?
Its TGI is 80.8 µM.

What about the TGI (K-562 leukemia) of the same compound?
The TGI was over 100 µM.

What about the TGI (KM12 colon) of the same compound?
The TGI was over 100 µM.

What about the TGI (LOX IMVI melanoma) of the same compound?
Its TGI is over 100 µM.

And the TGI (M14 melanoma)?
Its TGI is over 100 µM.

And the TGI (MALME-3M melanoma)?
Its TGI is over 100 µM.

And the TGI (MCF7 breast)?
The TGI was 67.4 µM.

What about the TGI (MDA-MB-231 breast) of the same compound?
Its TGI is over 100 µM.

What about the TGI (MDA-MB-435) of the same compound?
The TGI was over 100 µM.

What about the TGI (MDA-N) of the same compound?
The TGI was over 100 µM.

What about the TGI (MOLT-4 leukemia) of the same compound?
Its TGI is 68 µM.

And the TGI (NCI-H226 lung)?
The TGI was 75.5 µM.

What about the TGI (NCI-H23 lung) of the same compound?
Its TGI is over 100 µM.

And the TGI (NCI-H460 lung)?
Its TGI is 62.4 µM.

What about the TGI (NCI-H522 lung) of the same compound?
The TGI was over 100 µM.

What about the TGI (NCI/ADR-RES ovarian) of the same compound?
The TGI was 46 µM.

What about the TGI (OVCAR-3 ovarian) of the same compound?
The TGI was 40.5 µM.

And the TGI (OVCAR-4 ovarian)?
Its TGI is 81.5 µM.

And the TGI (OVCAR-5 ovarian)?
Its TGI is 74.3 µM.

What about the TGI (OVCAR-8 ovarian) of the same compound?
Its TGI is over 100 µM.

What about the TGI (PC-3 prostate) of the same compound?
Its TGI is 50.3 µM.

What about the TGI (RPMI-8226 leukemia) of the same compound?
Its TGI is over 100 µM.

What about the TGI (RXF 393 renal) of the same compound?
The TGI was 54.9 µM.

What about the TGI (SF-268 CNS) of the same compound?
The TGI was over 100 µM.

And the TGI (SF-295 CNS)?
The TGI was 64.5 µM.

What about the TGI (SF-539 CNS) of the same compound?
Its TGI is over 100 µM.

What about the TGI (SK-MEL-2 melanoma) of the same compound?
Its TGI is 99.9 µM.

What about the TGI (SK-MEL-28 melanoma) of the same compound?
The TGI was over 100 µM.

What about the TGI (SK-MEL-5 melanoma) of the same compound?
Its TGI is over 100 µM.

And the TGI (SK-OV-3 ovarian)?
Its TGI is 87.5 µM.

What about the TGI (SN12C renal) of the same compound?
The TGI was over 100 µM.

And the TGI (SNB-19 CNS)?
The TGI was 54.5 µM.

What about the TGI (SNB-75 CNS) of the same compound?
Its TGI is 87.4 µM.

And the TGI (SR leukemia)?
Its TGI is 67.4 µM.

And the TGI (SW-620 colon)?
Its TGI is over 100 µM.

What about the TGI (T-47D breast) of the same compound?
Its TGI is over 100 µM.

And the TGI (TK-10 renal)?
Its TGI is 66.7 µM.

And the TGI (U251 CNS)?
The TGI was 60.7 µM.

What about the TGI (UACC-257 melanoma) of the same compound?
Its TGI is over 100 µM.

What about the TGI (UACC-62 melanoma) of the same compound?
The TGI was over 100 µM.

And the TGI (UO-31 renal)?
Its TGI is 60.9 µM.
